{"source": "paper PMC11995724", "about": "“Antibiotic target discovery by integrated phenotypic and activity-based profiling of electrophilic fragments” (Cell chemical biology, 2025)", "note": "Screen size: about 3,200 compounds; about 75 (2%) showed an effect of 50% or more. The list shows a part of the results."}
{"test_system": "T1, S. aureus MSSA476", "T1 construct": "MSSA476", "design": "species or system S. aureus MSSA476 (TSB) or V. cholerae SAD30 (LB); 384-well bacterial growth screen at 25 uM, OD600 relative to DMSO control", "conditions": "relative growth, OD600, TSB; 25 µM; inhibitor", "units": {"% of control remaining": "%"}}
{"smiles": "Cc1ccnc(-c2n[nH]c(C(C)NC(=O)C(C)Cl)n2)c1", "note": "(stereo not drawn) [7-I10, 2-chloro-N-{1-[3-(4-methylpyridin-2-yl)-1H-1,2,4-triazol-5-yl]ethyl}propanamide]", "% of control remaining": 91.9937}
{"smiles": "O=C(Nc1cccc(-c2nnco2)c1)N1CCSSCC1", "note": "[10-P09, N-[3-(1,3,4-oxadiazol-2-yl)phenyl]-1,2,5-dithiazepane-5-carboxamide]", "% of control remaining": 103.75}
{"smiles": "C=CC(=O)NCCC(=O)N1CCCN(c2cccnn2)CC1", "note": "[2-P16, N-{3-oxo-3-[4-(pyridazin-3-yl)-1,4-diazepan-1-yl]propyl}prop-2-enamide]", "% of control remaining": 109.661}
{"smiles": "C=CC(=O)N(Cc1cnc(C2CC2)o1)C1CCCCC1C", "note": "(stereo not drawn) [1-D15, N-[(2-cyclopropyl-1,3-oxazol-5-yl)methyl]-N-(2-methylcyclohexyl)prop-2-enamide]", "% of control remaining": 100.571}
{"smiles": "C=CC(=O)Nc1cnn2cc(C)cnc12", "note": "[1-G19, N-{6-methylpyrazolo[1,5-a]pyrimidin-3-yl}prop-2-enamide]", "% of control remaining": 111.824}
{"smiles": "CC(NC(=O)C(C#N)=Cc1ccccc1F)c1ccccc1", "note": "(stereo not drawn) [8-P16, 2-cyano-3-(2-fluorophenyl)-N-(1-phenylethyl)prop-2-enamide]", "% of control remaining": 79.0041}
{"smiles": "C=CCN(Cc1ccc(Cl)s1)C(=O)CCl", "note": "[5-M05, 2-chloro-N-[(5-chlorothiophen-2-yl)methyl]-N-(prop-2-en-1-yl)acetamide]", "% of control remaining": 83.7887}
{"smiles": "CN1C(=O)[C@H](NC(=O)CCl)COc2ccccc21", "note": "[7-D04, 2-chloro-N-[(3R)-5-methyl-4-oxo-2,3,4,5-tetrahydro-1,5-benzoxazepin-3-yl]acetamide]", "% of control remaining": 81.3187}
{"smiles": "C=CC(=O)N(Cc1ccc2cnn(C)c2c1)CC(C)(C)C", "note": "[2-O05, N-(2,2-dimethylpropyl)-N-[(1-methyl-1H-indazol-6-yl)methyl]prop-2-enamide]", "% of control remaining": 92.9504}
{"smiles": "O=C(CCl)N(Cc1ccnn1C1CCC1)C1CC=CCC1", "note": "(stereo not drawn) [5-I14, 2-chloro-N-[(1-cyclobutyl-1H-pyrazol-5-yl)methyl]-N-(cyclohex-3-en-1-yl)acetamide]", "% of control remaining": 87.796}
{"smiles": "Cc1c(C#N)c(NC(=O)CCl)n(Cc2ccccc2)c1C", "note": "[4-M21, N-(1-benzyl-3-cyano-4,5-dimethyl-1H-pyrrol-2-yl)-2-chloroacetamide]", "% of control remaining": 121.582}
{"smiles": "Cc1ccc(Sc2ccc(NC(=O)CCl)cc2)cc1C", "note": "[4-G03, 2-chloro-N-{4-[(3,4-dimethylphenyl)sulfanyl]phenyl}acetamide]", "% of control remaining": 104.431}
{"smiles": "COc1ccc(C=C(C#N)C(=O)Nc2cccc3ccccc23)cc1", "note": "[9-E10, 2-cyano-3-(4-methoxyphenyl)-N-(naphthalen-1-yl)prop-2-enamide]", "% of control remaining": 100.375}
{"smiles": "Cc1ccc(C)n1C1CCC(NC(=O)CCl)CC1", "note": "(stereo not drawn) [7-F18, 2-chloro-N-[4-(2,5-dimethyl-1H-pyrrol-1-yl)cyclohexyl]acetamide]", "% of control remaining": 113.03}
{"smiles": "C=CC(=O)NCCC(=O)N1CCCC1c1cn(C)nc1C", "note": "(stereo not drawn) [3-E10, N-{3-[2-(1,3-dimethyl-1H-pyrazol-4-yl)pyrrolidin-1-yl]-3-oxopropyl}prop-2-enamide]", "% of control remaining": 105.181}
{"smiles": "Cc1ccc(N(C(=O)CCl)C2C=CS(=O)(=O)C2)cc1", "note": "(stereo not drawn) [5-K13, 2-chloro-N-(1,1-dioxo-2,3-dihydro-1lambda6-thiophen-3-yl)-N-(4-methylphenyl)acetamide]", "% of control remaining": 104.189}
{"smiles": "C=CC(=O)N(Cc1ccc(Cl)o1)C1CCCC12CCOCC2", "note": "(stereo not drawn) [2-K05, N-[(5-chlorofuran-2-yl)methyl]-N-{8-oxaspiro[4.5]decan-1-yl}prop-2-enamide]", "% of control remaining": 104.091}
{"smiles": "CN(C(=O)CCl)C1CCCCC1", "note": "[5-N07, 2-chloro-N-cyclohexyl-N-methylacetamide]", "% of control remaining": 95.082}
{"smiles": "C=CC(=O)Nc1nn(CC(C)C)cc1Cl", "note": "[2-G05, N-[4-chloro-1-(2-methylpropyl)-1H-pyrazol-3-yl]prop-2-enamide]", "% of control remaining": 97.8242}
{"smiles": "COc1cc(C=C(C#N)C(=O)NC(C)C)cc(Cl)c1O", "note": "[9-K11, 3-(3-chloro-4-hydroxy-5-methoxyphenyl)-2-cyano-N-(propan-2-yl)prop-2-enamide]", "% of control remaining": 103.371}
{"smiles": "C=CC(=O)NC1(c2cccc(F)c2)CCOCC1", "note": "[1-M04, N-[4-(3-fluorophenyl)oxan-4-yl]prop-2-enamide]", "% of control remaining": 92.8352}
{"smiles": "N#CCCN(C(=O)CCl)c1cccc(Cl)c1", "note": "[6-A17, 2-chloro-N-(3-chlorophenyl)-N-(2-cyanoethyl)acetamide]", "% of control remaining": 89.4634}
{"smiles": "C=CC(=O)NCCC(=O)N1CCN(c2ccc(C#N)cc2F)CC1", "note": "[3-D07, N-{3-[4-(4-cyano-2-fluorophenyl)piperazin-1-yl]-3-oxopropyl}prop-2-enamide]", "% of control remaining": 99.9565}
{"smiles": "C=CC(=O)N1CCC(C(=O)N2CCc3ccccc32)CC1", "note": "[1-E09, 1-[4-(2,3-dihydro-1H-indole-1-carbonyl)piperidin-1-yl]prop-2-en-1-one]", "% of control remaining": 90.7253}
{"smiles": "C=CC(=O)NC(c1ccccc1)C1CCC1", "note": "(stereo not drawn) [1-G05, N-[cyclobutyl(phenyl)methyl]prop-2-enamide]", "% of control remaining": 71.3846}
{"smiles": "CC(Cl)C(=O)NC1CC=CCC1", "note": "(stereo not drawn) [6-K21, 2-chloro-N-(cyclohex-3-en-1-yl)propanamide]", "% of control remaining": 90.4878}
{"smiles": "CC(Cl)C(=O)N1C2CCC1CC1(C2)CC1(F)F", "note": "(stereo not drawn) [6-N18, 2-chloro-1-{2',2'-difluoro-8-azaspiro[bicyclo[3.2.1]octane-3,1'-cyclopropan]-8-yl}propan-1-one]", "% of control remaining": 87.4146}
{"smiles": "CC(C)Oc1ccccc1C=C(C#N)C(=O)Nc1cccc(Cl)c1", "note": "[9-P20, N-(3-chlorophenyl)-2-cyano-3-[2-(propan-2-yloxy)phenyl]prop-2-enamide]", "% of control remaining": 97.0787}
{"smiles": "COc1ccc(S(=O)(=O)N(C)C)cc1NC(=O)CCl", "note": "[4-E05, 2-chloro-N-[5-(dimethylsulfamoyl)-2-methoxyphenyl]acetamide]", "% of control remaining": 110.148}
{"smiles": "CC(C)N1C(=O)C[C@H](NC(=O)CCl)[C@H]1c1ccc(Cl)c(F)c1", "note": "(racemic) [5-I11, rac-2-chloro-N-[(2R,3S)-2-(4-chloro-3-fluorophenyl)-5-oxo-1-(propan-2-yl)pyrrolidin-3-yl]acetamide]", "% of control remaining": 90.7104}
{"smiles": "O=C(CCl)N1CC(Cc2ccc(F)cc2F)C1", "note": "[5-G20, 2-chloro-1-{3-[(2,4-difluorophenyl)methyl]azetidin-1-yl}ethan-1-one]", "% of control remaining": 87.0674}
{"smiles": "CN(CCNC(=O)CCl)S(=O)(=O)c1cccs1", "note": "[6-H11, 2-chloro-N-[2-(N-methylthiophene-2-sulfonamido)ethyl]acetamide]", "% of control remaining": 75.4634}
{"smiles": "Cc1ccccc1NC(=O)C(C#N)=Cc1ccc2c(c1)OCCO2", "note": "[8-J03, 2-cyano-3-(2,3-dihydro-1,4-benzodioxin-6-yl)-N-(2-methylphenyl)prop-2-enamide]", "% of control remaining": 129.461}
{"smiles": "N#CC(=Cc1ccc(Cl)cc1)C(=O)Nc1ccncc1", "note": "[8-K20, 3-(4-chlorophenyl)-2-cyano-N-(pyridin-4-yl)prop-2-enamide]", "% of control remaining": 95.6017}
{"smiles": "C=CC(=O)N1CCCC1c1cc(C)no1", "note": "(stereo not drawn) [3-G12, 1-[2-(3-methyl-1,2-oxazol-5-yl)pyrrolidin-1-yl]prop-2-en-1-one]", "% of control remaining": 91.5977}
{"smiles": "Cc1ccc(C(=O)CCl)o1", "note": "[10-A09, 2-chloro-1-(5-methylfuran-2-yl)ethan-1-one]", "% of control remaining": 137.188}
{"smiles": "COc1ccc(CNC(=O)CCl)cc1OC", "note": "[5-O11, 2-chloro-N-[(3,4-dimethoxyphenyl)methyl]acetamide]", "% of control remaining": 81.6029}
{"smiles": "CC(Cl)C(=O)N1CCCN2c3ccccc3CC2C1", "note": "(stereo not drawn) [7-G06, 1-{1H,2H,3H,4H,5H,11H,11aH-[1,4]diazepino[1,2-a]indol-2-yl}-2-chloropropan-1-one]", "% of control remaining": 95.4474}
{"smiles": "C=CC(=O)Nc1cnc(C2CCCC2)nc1", "note": "[1-G17, N-(2-cyclopentylpyrimidin-5-yl)prop-2-enamide]", "% of control remaining": 114.989}
{"smiles": "C=CC(=O)NC1(c2cc(C)no2)CCOCC1", "note": "[1-F18, N-[4-(3-methyl-1,2-oxazol-5-yl)oxan-4-yl]prop-2-enamide]", "% of control remaining": 106.901}
{"smiles": "Cc1ccc(C)c(Sc2ccc(NC(=O)CCl)cc2)c1", "note": "[4-H09, 2-chloro-N-{4-[(2,5-dimethylphenyl)sulfanyl]phenyl}acetamide]", "% of control remaining": 116.246}
{"smiles": "Cc1cc(C=C(C#N)C(=O)Nc2nccs2)cc(C)c1O", "note": "[9-D13, 2-cyano-3-(4-hydroxy-3,5-dimethylphenyl)-N-(1,3-thiazol-2-yl)prop-2-enamide]", "% of control remaining": 97.9775}
{"smiles": "C=CC(=O)N(C)CC(=O)N1CCN(c2nsc3ccccc23)CC1", "note": "[2-N10, N-{2-[4-(1,2-benzothiazol-3-yl)piperazin-1-yl]-2-oxoethyl}-N-methylprop-2-enamide]", "% of control remaining": 111.053}
{"smiles": "CC(Cl)C(=O)Nc1ccc(F)c(F)c1F", "note": "(stereo not drawn) [4-O08, 2-chloro-N-(2,3,4-trifluorophenyl)propanamide]", "% of control remaining": 94.5212}
{"smiles": "O=C(CCl)N1CCN(S(=O)(=O)c2ccc([N+](=O)[O-])cc2)CC1", "note": "[4-J07, 2-chloro-1-[4-(4-nitrobenzenesulfonyl)piperazin-1-yl]ethan-1-one]", "% of control remaining": 127.68}
